About 14,000 (4.5%) of roughly 310,000 compounds showed an effect of 50% or more. The effect is printed as a negative number. Some of the results follow.
The compounds below were run against human ether-à-go-go-related gene (hERG) potassium channel (human, UniProt Q12809) (assay: primary screen, population patch clamp on CHO cells stably expressing hERG).
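Note: peak tail current of the secondary pulse compared with the same well before compound.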

Chain of human ether-à-go-go-related gene (hERG) potassium channel (Q12809 whole entry, looked up): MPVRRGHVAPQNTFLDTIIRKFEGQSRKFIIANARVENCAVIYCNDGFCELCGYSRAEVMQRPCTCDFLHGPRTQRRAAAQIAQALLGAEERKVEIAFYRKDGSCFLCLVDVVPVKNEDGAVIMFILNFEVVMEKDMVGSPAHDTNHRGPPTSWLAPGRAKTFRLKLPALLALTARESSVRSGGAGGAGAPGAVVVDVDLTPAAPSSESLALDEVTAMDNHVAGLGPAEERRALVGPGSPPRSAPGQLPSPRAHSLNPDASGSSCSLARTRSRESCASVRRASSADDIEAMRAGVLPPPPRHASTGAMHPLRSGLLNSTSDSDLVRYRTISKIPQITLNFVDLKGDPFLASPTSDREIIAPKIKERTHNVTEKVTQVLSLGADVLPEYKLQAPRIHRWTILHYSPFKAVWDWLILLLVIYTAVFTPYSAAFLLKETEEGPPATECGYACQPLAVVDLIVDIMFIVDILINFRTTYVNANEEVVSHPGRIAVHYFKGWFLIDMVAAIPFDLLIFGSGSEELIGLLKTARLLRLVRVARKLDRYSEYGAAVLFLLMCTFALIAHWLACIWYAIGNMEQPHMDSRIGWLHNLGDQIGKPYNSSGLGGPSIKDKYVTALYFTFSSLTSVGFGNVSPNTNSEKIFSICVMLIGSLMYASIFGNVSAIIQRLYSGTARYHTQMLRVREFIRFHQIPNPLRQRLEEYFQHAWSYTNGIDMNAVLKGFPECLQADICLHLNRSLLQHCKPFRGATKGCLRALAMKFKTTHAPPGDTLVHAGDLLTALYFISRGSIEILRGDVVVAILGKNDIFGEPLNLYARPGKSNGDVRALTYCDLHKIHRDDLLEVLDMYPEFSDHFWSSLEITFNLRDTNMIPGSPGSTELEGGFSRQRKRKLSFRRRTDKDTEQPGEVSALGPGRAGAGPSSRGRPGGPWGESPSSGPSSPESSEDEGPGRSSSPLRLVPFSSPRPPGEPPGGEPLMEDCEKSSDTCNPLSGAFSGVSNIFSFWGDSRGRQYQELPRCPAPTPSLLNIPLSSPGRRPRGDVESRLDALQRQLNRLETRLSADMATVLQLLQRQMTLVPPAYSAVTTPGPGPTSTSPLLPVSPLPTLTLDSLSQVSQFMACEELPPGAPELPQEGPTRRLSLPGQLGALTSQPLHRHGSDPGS

| SMILES | hERG current change (%, negative = inhibition) at 10uM |
| --- | --- |
| CC(C)n1c(=O)[nH][nH]c1=S | 15% |
| Cc1ccc(/C=C2\SC(=S)N(CCC(=O)Nc3cccnc3)C2=O)cc1 | 14% |
| COc1cc(OC)cc(C(=O)Nc2ccccc2C(=O)NC2CC2)c1 | 9.06% |
| CCOC(=O)c1ccc(NC(=O)N2CCCCCC2)cc1 | -5.72% |
| CC(C)CN1CCN(Cc2cn(C)c3ccccc23)CC1CCO (centres unmarked) | 9.53% |
| CCCc1nc2c(c(=O)c3ccccc3n2C)c(=O)n1-c1cc(C)cc(C)c1 | -12.2% |
| C=C(C)Cn1c(C)cc(C)c(S(=O)(=O)c2ccc(C)cc2)c1=O | 4.75% |
| COc1ccc(S(=O)(=O)Cc2ccc(C(=O)NC3CCCCCC3)o2)cc1 | -2.22% |
| CC(C)(C)c1ccc2c(c1)C(=O)c1ccccc1C2=O | 7.92% |
| N#C/C(=C\c1cccnc1)c1ccccn1 | 9.17% |
| CCOc1cc(N2CCOCC2)c(OCC)cc1NC(=O)COC(=O)COc1ccc(C#N)cc1 | 10.5% |
| CCCc1[nH]nc2c1C(c1ccncc1)C(C#N)=C(N)O2 (centres unmarked) | -4.11% |
| COc1ccc(/C=C/C(=O)NC(=S)N2CCOCC2)cc1 | 1.48% |
| CSc1ncc(/C=C2/C(=O)NC(=O)N(C)C2=O)cn1 | 18.8% |
| COc1cc(Cl)c(C)cc1NC(=O)COC(=O)c1cnc(C)cn1 | 4.05% |
| COc1cc(S(=O)(=O)N(Cc2ccco2)C2CCCC2)ccc1-n1cnnn1 | -12.1% |
| Cc1cc(C)cc(NC(=O)CCNS(=O)(=O)c2cc(Br)cnc2N)c1 | 17.2% |
| O=C(CCNC(=O)N1CCn2c1nc1ccccc12)NCc1ccccc1Cl | -16.2% |
| Cc1cc(NCCN2CCOCC2)n2nc(C)c(-c3ccc(Cl)cc3)c2n1 | -50.2% |
| CN(C)C(=O)Oc1ccc(Cl)c2cccnc12 | 0.409% |
| Fc1cccc(Nc2nc3ccccc3n3nnnc23)c1 | 6.86% |
| CCOC(=O)c1sc(NC(=O)C2C3C=CC(C3)C2C(=O)O)nc1C (centres unmarked) | 16.2% |
| COc1ccc(-c2csc(N3CCSCC3)n2)cc1 | 18.1% |
| COc1cc(C(=O)N/C(=C\c2cn(C)c3ccccc23)C(=O)NCCCN2CCOCC2)cc(OC)c1OC | 2.72% |
| O=C(CCN1CCOCC1)Nc1ccc(F)cc1 | -10.5% |
| CCn1c(Cc2cccn2C)nnc1SCC(=O)c1ccc(C)cc1 | 1.17% |

— PMC4336329 (PLoS ONE, 2015)
